# From publication PMC4336329 (PLoS ONE, 2015)
# The campaign covered roughly 310,000 compounds. About 14,000 (4.5%) showed an effect of 50% or more. The effect is printed as a negative number. This is one part of the list. Where a SMILES comes first, the peptide text is derived from it.
# Biological target: human ether-à-go-go-related gene (hERG) potassium channel (human, UniProt Q12809)
# Assay: primary screen, population patch clamp on CHO cells stably expressing hERG
# 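Also: peak tail current of the secondary pulse compared with the same well before compound.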
# human ether-à-go-go-related gene (hERG) potassium channel, sequence (Q12809 whole entry, looked up): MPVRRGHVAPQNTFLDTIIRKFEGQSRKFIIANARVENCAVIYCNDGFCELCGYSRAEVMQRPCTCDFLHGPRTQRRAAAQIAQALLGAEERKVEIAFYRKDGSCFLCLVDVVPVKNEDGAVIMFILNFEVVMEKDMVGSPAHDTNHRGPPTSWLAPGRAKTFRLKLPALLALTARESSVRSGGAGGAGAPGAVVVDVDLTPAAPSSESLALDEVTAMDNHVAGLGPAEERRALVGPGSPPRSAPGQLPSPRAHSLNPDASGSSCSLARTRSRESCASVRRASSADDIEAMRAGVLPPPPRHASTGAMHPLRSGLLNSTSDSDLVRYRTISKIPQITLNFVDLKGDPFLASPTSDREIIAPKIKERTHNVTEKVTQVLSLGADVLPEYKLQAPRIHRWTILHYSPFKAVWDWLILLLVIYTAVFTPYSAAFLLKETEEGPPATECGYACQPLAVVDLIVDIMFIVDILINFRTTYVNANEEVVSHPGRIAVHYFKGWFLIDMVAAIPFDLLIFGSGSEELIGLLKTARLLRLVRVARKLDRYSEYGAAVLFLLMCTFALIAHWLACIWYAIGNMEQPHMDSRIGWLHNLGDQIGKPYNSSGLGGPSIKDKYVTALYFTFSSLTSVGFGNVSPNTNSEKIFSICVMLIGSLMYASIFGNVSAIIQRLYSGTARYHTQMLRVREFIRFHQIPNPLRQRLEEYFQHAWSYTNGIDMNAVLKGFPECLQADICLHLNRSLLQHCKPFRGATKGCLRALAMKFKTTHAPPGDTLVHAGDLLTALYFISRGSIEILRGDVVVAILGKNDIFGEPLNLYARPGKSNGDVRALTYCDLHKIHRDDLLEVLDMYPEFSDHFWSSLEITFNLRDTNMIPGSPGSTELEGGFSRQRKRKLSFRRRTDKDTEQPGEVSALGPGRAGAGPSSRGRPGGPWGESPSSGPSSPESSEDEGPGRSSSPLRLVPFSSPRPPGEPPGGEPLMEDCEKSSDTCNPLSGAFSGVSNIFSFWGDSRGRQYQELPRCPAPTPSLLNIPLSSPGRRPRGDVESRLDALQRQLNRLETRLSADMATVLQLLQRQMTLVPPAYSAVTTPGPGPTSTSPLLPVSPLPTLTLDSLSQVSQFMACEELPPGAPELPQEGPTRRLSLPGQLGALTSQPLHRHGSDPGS
row,SMILES,"hERG current change (%, negative = inhibition) at 10uM"
1,COc1ccc(NC(=O)Cn2cccc2)c(OC)c1,-2.18%
2,O=C(/C=C/c1cccc([N+](=O)[O-])c1)Nc1ccccc1N1CCOCC1,-49.1%
3,COc1ccc(N=Cc2c(O)n(-c3ccc(OC)cc3)c(=O)c3ccccc23)cc1,15.2%
4,CCOC(=O)C(CC)n1nc(C)n2c(cc3sccc32)c1=O (centres unmarked),-17.2%
5,CC(C)(O)C(=O)NNC(=S)NCc1ccco1,-5.53%
6,CCOC(=O)CC1=C(C(=O)OCC)C(c2cccnc2)C(C#N)=C(N)O1 (centres unmarked),5.53%
7,Cc1cccc(N2CCN(C(=O)C3CCC(CNS(=O)(=O)c4cccs4)CC3)CC2)c1C (centres unmarked),1.93%
8,O=C(c1ccco1)N1CCN(Cc2cc(=O)c(OCc3ccccc3Cl)co2)CC1,-56.2%
9,C/C(=N\NC(=S)Nc1ccc(C)c(C)c1)c1ccc(N2CCOCC2)cc1,23.7%
10,CCNC(=O)/C(C#N)=C/c1c(N2CCN(Cc3ccc4c(c3)OCO4)CC2)nc2c(C)cccn2c1=O,-37.6%
11,CC(C)CN(C)C(=O)CCc1nnc(Cc2ccc(-c3ccccc3)cc2)o1,-17.3%
12,COC(=O)[C@]1(C)N[C@H](c2ccc(-c3ccc(Cl)c(Cl)c3)c(OC)c2)[C@@H]2C(=O)N(C)C(=O)[C@@H]21.O=C(O)C(F)(F)F,-7.69%
13,CCCCCN(C(=O)CCC(=O)OCCOc1ccccc1)c1c(N)n(CCCC)c(=O)[nH]c1=O,-19%
14,COc1ccc2sc(NC(=O)c3ccco3)nc2c1,-0.256%
15,Cc1ccc(N(CC(=O)NCc2ccco2)C(=O)CCC(=O)Nc2nccs2)cc1C,-7.5%
16,Cc1ccc(C)c(C(=O)COC(=O)c2ccc(Br)o2)c1,4.92%
17,Cc1csc2c(NCCCN3CCOCC3)ncnc12,2.69%
18,Cc1ccc(N=C2CCCN2Cc2ccccc2)c(C#N)c1,-16.1%
19,O=C(C1CCN(CC2CC=CCC2)CC1)N(CCc1ccccc1)Cc1ccccc1 (centres unmarked),-72%
20,CC(C)C[C@H](NC(=O)[C@@H]1CCCN1C(=O)[C@@H](N)Cc1ccc(O)cc1)C(=O)NCC(N)=O (H-YPLG-NH2),15.9%
21,CCNC(=O)c1ccccc1SCc1ccccc1,1.38%
22,CC(c1ccccc1)N1C(=O)c2ccccc2C1(O)Cc1ccccc1 (centres unmarked),-4.7%

row,SMILES,"hERG current change (%, negative = inhibition) at 10uM"
1,Cc1ccc(OCCOC(=O)C2CCN(S(=O)(=O)c3ccc(C)c(C)c3)CC2)cc1,2.76%
2,CCOC(=O)C1CCN(C(=O)C2(NC(=O)NC3CCCCC3)CCCCC2)CC1,22.8%
3,Cc1noc(/C=C/N(C)C)c1S(=O)(=O)NC1CCCCC1,7.75%
4,CC(C)(C)OC(=O)N1CCC[C@H]1c1nnc(SCc2c(Cl)cccc2Cl)o1,-57.5%
5,COC(=O)c1ccccc1NC(=O)c1sc(=S)n(C)c1N,9.99%
6,CCOc1ccccc1C(=O)NCC(=O)NCCCc1ccccc1,-11.7%
7,CCOC(=O)c1ccc(NC(=O)c2cccc(C)c2[N+](=O)[O-])cc1,4.73%
8,Cc1ccc(N=Nc2c(O)ccc3n[nH]nc23)cc1,7.51%
9,Cc1c(C(=O)Nc2cccc(N(C)S(C)(=O)=O)c2)cccc1[N+](=O)[O-],3.7%
10,Cc1ccc(C(=O)CSc2nnnn2-c2ccccc2)o1,-2.08%
11,COCc1cc(=O)[nH]c(/N=C(\N)Nc2ccccc2C)n1,-9.8%
12,Cc1[nH]c2c(C)cccc2c(=O)c1Br,2.14%
13,Cc1c(C(=O)N2CCCC2)c(S(=O)(=O)Nc2ccccc2Cl)c(C)n1C,5.75%
14,CN1C(=O)C(C(=O)NC(C)(C)C)C2c3ccccc3OC13CCCCC23 (centres unmarked),-8.31%
15,O=C(NN1CC(=O)N(c2cc(Cl)cc(Cl)c2)CC1=O)c1cccs1,3.07%
16,CCn1c(SCC(=O)NCc2ccco2)nnc1C(C)C,0.334%
17,O=C(OC1CCOC1=O)c1cc(Cl)ccc1[N+](=O)[O-] (centres unmarked),1.35%
18,Cc1cc(Cl)ccc1NC(=S)NC(C)(C)C,22.7%
19,NC(=O)CC(NC(=O)Cc1ccc(Br)cc1)c1ccc(NCCc2cccc(F)c2)c([N+](=O)[O-])c1 (centres unmarked),4.53%
20,Nc1nc(CN2CCN(c3ccccc3)CC2)nc(N2CCCc3ccccc32)n1,-39.6%
21,C=CCN(Cc1cc(OC)ccc1OC)C(=O)c1cc2ccc(OC)cc2[nH]1,4.2%
22,O=C(Nc1ccc2oc(=O)ccc2c1)c1ccc(-c2cccc([N+](=O)[O-])c2)o1,-8.21%
